From the supplement of paper PMC10126150
Values marked as one replicate rest on one cluster of the flow cell; about a third of the high ones do not repeat.

System: ATP
Assay: switch fluorescence ratio, 500 uM ATP over buffer (Cy3 cluster intensity, sum of 5 cycles each) (fold (ratio)); higher = stronger signal-on switching upon ATP binding; sequences stand for … in TCGTCGGCAGCGTCAGATGTGTATAAGAGACAGTTTTTTTTTTTTTTTTTTTTTTTTT…TC
Settings: aptamer strand: ATP DNA aptamer (quencher-CACCTGGGGGAGTATTGCGGAGGAAGG + anchor), 100 nM annealed; ATP concentration: 500 uM; one replicate
Procedure, shortened: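 After annealing to 100 nM quencher-labelled ATP aptamer, Cy3-labelled switching-strand clusters on a modified Illumina MiSeq flow-cell were imaged in selection buffer. A second image followed after 15 min with 500 uM ATP at 22 °C, and five such buffer/ATP cycles were done, each separated by NaOH stripping and re-annealing. The fluorescence ratio, averaged per switch-domain sequence, is summed target-cycle over summed buffer-cycle Cy3 intensity per cluster, with clusters outside 100-1000 RFU excluded.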
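Further: ATP exposure 15 min at 22 °C before imaging.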

| Sequence | switch fluorescence ratio |
| --- | --- |
| GACATTGCTT | 0.989 |
| ATTCTTTTTC | 1.02 |
| AGGCGCGAGC | 1.03 |
| ACCAAGTTAA | 1.02 |
| CCCTTACGCA | 1.86 |
| TGCGGTATT | 1.01 |
| AGGACCCTAT | 1.04 |
| ACTTTTCGCC | 1.09 |
| GGGTTCGTGT | 1.04 |
| GCGTCTAGAC | 1.05 |
| TGAGTAATCG | 1.09 |
| CTGCCATGAG | 0.98 |
| AAATTGTCTC | 1.05 |
| CACCAATCCT | 1.06 |
| ATTCGCAGTA | 1.03 |
| TACTACTCCC | 1.61 |
| GATGGCGTCG | 0.974 |
| TCCGGGCGAG | 1.11 |
| ATGGTCAAGT | 0.97 |
| GGCATATGGT | 0.957 |
| GGATAAATGG | 0.977 |
| CGAGAAGTGG | 0.976 |
| GCTCACAGAT | 1.02 |
| GTCTGCAGAA | 0.981 |
| TTTAAAGTAA | 1.04 |
| TTCGGTCGCA | 1.04 |

| Sequence | switch fluorescence ratio |
| --- | --- |
| AGTTATTTT | 0.982 |
| CGTGCACCTG | 0.949 |
| CGAGAAACAG | 0.97 |
| TCTTTCAAAC | 1.1 |
| TTTATGGCCG | 0.972 |
| CATGAACGAG | 0.999 |
| CTTTTCCGGT | 0.998 |
| AATTGACTAT | 1.03 |
| CTGGCTGCAG | 0.987 |
| TGAAGCTGCG | 1.03 |
| TGTATGGTTC | 0.994 |
| ACACTACTTG | 1.16 |
| CAGGGGTGTT | 1.08 |
| ATAATTACGC | 1.03 |
| TACCTGCTAT | 1.08 |
| CTGGCCTACA | 1.07 |
| AAGACAGTA | 0.988 |
| TTTGTGGAA | 0.945 |
| CCGAAGTCTT | 1.8 |
| GTATGAG | 0.983 |
| CCCCTCGGCT | 1.08 |
| AAGGGACGAA | 1 |
| TACGGATGAA | 0.963 |
| TGTGAGCTGG | 0.988 |
| GGAAGAAGAG | 0.956 |
| TTGAAGGGA | 0.983 |

| Sequence | switch fluorescence ratio |
| --- | --- |
| TGGATCTCTA | 1 |
| GAATGACTTG | 1 |
| CATGCTTGC | 1.02 |
| TAAGACTGAC | 0.984 |
| TAGCGGTGTA | 0.959 |
| ATCAGGAGGC | 1.03 |
| TAAATAGAAA | 0.982 |
| GCAGTGTATC | 0.985 |
| TAAAATACCT | 1.43 |
| CTTTGTTGGC | 1 |
| CGGAACTTGG | 0.987 |
| TAGCAGAACT | 1.19 |
| GGAAGGTGTA | 0.948 |
| TCGAGGAGTC | 0.992 |
| CCCCATACGT | 1.24 |
| TTCAATTTTA | 0.982 |
| AACCTACGGT | 1.07 |
| GCGGCTGTA | 1.01 |
| TGGAGGTTGG | 0.935 |
| TATTGTTGAT | 0.957 |
| TCATAGAGCT | 0.956 |
| GCTATAGGAG | 1 |
| GGGTTTAA | 0.996 |
| GATCCGGAGA | 1.07 |
| CTGTTAACG | 1.01 |
| GATACAAGC | 0.995 |

| Sequence | switch fluorescence ratio |
| --- | --- |
| TCATGAAACC | 1.02 |
| CCGACGTGTA | 6.67 |
| ACCGGGTGGT | 1.11 |
| ATTGGATGGA | 1.03 |
| TGTTTGTAGT | 1.01 |
| ACAAGATCTA | 1 |
| AGATTGATGA | 1.02 |
| ATTTCTTTGT | 0.992 |
| TTACGTCGGC | 1.06 |
| TCGGACTGG | 1 |
| CCGTCAATG | 1.83 |
| ATGTTTTTT | 1.03 |
| CAGCCGATGA | 1.04 |
| TGATGAAGT | 1.11 |
| GTCAGCC | 1.01 |
| GGTTATGTGA | 1.02 |
| CCATCAAGTA | 1.05 |
| AAGTAATTA | 1.07 |
| GAGGGTCTAA | 1.02 |
| ATTGAAGTTA | 1.05 |
| CCGTTGGAGG | 1.02 |
| AATTATACCT | 1.36 |
| TGCGCTAGAT | 1.07 |
| ATATGCGCTT | 1.02 |
| CCATGCCATT | 0.998 |
| CACCTGAAAG | 1.02 |

| Sequence | switch fluorescence ratio |
| --- | --- |
| AGCTGGGAAT | 0.99 |
| CTCGTCTGTT | 0.995 |
| AGCTTTATAA | 1.03 |
| TGACGATAGT | 1.03 |
| GAAGTATGA | 1.01 |
| AACGGTTGCC | 0.974 |
| GAAGGCCCTA | 1 |
| CTGACGTATA | 3.93 |
| AGGGCGAAGG | 0.982 |
| AACGGGGTAC | 1.15 |
| CTTGGAGCTC | 1.07 |
| GTAAGGCCAG | 1 |
| ACGCTCTTTG | 1.01 |
| CCCAATTGAA | 1.02 |
| CGGTGGCCAG | 0.987 |
| ACATATAGGA | 1.04 |
| GTCTTGGTCT | 0.955 |
| CGGCCTAGA | 0.969 |
| GTGTCTAAAG | 1.03 |
| AGCTACATG | 1 |
| TGCCATCGGA | 0.987 |
| CACGTCTTAA | 0.98 |
| TTGGGGACAG | 0.943 |
| TCGTATTCCT | 1.02 |
| AATTGCGCAA | 1.01 |
| TAAAAGTGC | 1.23 |

| Sequence | switch fluorescence ratio |
| --- | --- |
| TAGCAAACCC | 1.33 |
| ATAGGGTGTT | 1.03 |
| ACTGAGGATT | 1.05 |
| GATTGCGCTT | 1.01 |
| TAGTGTGAGG | 0.984 |
| AAACGTGGTC | 0.963 |
| AGATTTATAC | 1.05 |
| ATCGCCCCAC | 1.23 |
| GATGATTGAG | 1 |
| GATTTCGACA | 0.951 |
| ACTATAATGG | 1.05 |
| GCACCCGCGG | 0.939 |
| GGGGTTGAA | 0.981 |
| GGACTGGTGC | 1.05 |
| AAGACTATAC | 1.48 |
| TAGTGCG | 1 |
| GCAGGCATGG | 0.947 |
| TAGAAGTTGG | 0.969 |
| CTTGGTATAA | 0.984 |
| CTGGGTGGGT | 1.02 |
| AAGTAATCT | 0.991 |
| ATGTCCATTT | 0.996 |
| TAGGGGCAGA | 1.02 |
| ACGGGGATAT | 1.13 |
| GTACGATCCT | 1.01 |
| TTGGCCGCGG | 1.03 |

| Sequence | switch fluorescence ratio |
| --- | --- |
| ACCATTAAGA | 1.01 |
| GCTGATAGTG | 0.978 |
| AGTCGTGCG | 0.987 |
| GCAAAGGGAT | 1.02 |
| AGCTAGGTGG | 0.985 |
| TCTTATGGCT | 1.02 |
| CGCGGTCGGC | 1.03 |
| GGGTCCCGGC | 1.02 |
| CGCGAACCCA | 1.03 |
| GAAAAAGCTT | 1.01 |
| AACAGCAGGT | 1.02 |
| GTGGTATGCG | 0.835 |
| AAAAATCTTG | 1.01 |
| AGCACAGGCA | 1.06 |
| ATGGTGAGTG | 1.12 |
| CCAGCTTTGT | 0.988 |
| TGTAGTCTTC | 0.991 |
| CGTTTATGCG | 0.919 |
| ATTTATCTGT | 1.02 |
| TATATCTGCT | 0.978 |
| AGGAAATGC | 1.22 |
| TTAGTGGAAC | 0.969 |
| TTCGTAGAGT | 0.955 |
| TACGGTGTAT | 1.05 |
| TATCCCGTGC | 1.1 |
| TATTGATATA | 0.995 |

| Sequence | switch fluorescence ratio |
| --- | --- |
| AGGGTACGCA | 1.06 |
| ACTATGAGGG | 1.01 |
| GAATCGGGTC | 0.935 |
| ACCGTACGGG | 0.994 |
| GAAAGGGTGA | 1.03 |
| TTGGGCGCGT | 0.952 |
| TAGCGGGGAA | 0.982 |
| GAACCGGGA | 1.06 |
| TAGATGTAGG | 0.997 |
| CGCAGCAGGG | 3.61 |
| CAACCACTTT | 1.1 |
| AGAGGGTCGA | 1.01 |
| TTTGCCATCC | 1.02 |
| TCACTCTCA | 0.954 |
| CAAATACTGT | 1.07 |
| CCGAGGTAGT | 1.04 |
| GTGCCTGATA | 0.942 |
| CCGTGTATGG | 1.02 |
| ATGTCTGCAC | 1.14 |
